Screen size: about 48,000 compounds; about 120 (0.25%) were called active. Inconclusive results (about 4%) are left out. Calls follow the shape of the dose curve; as a rule, active = well fitted activation curve with a large enough effect; inconclusive = small, poorly fitted or top-dose-only effect, or another doubt; inactive = no such curve, though single readings can be large or run the other way. The list shows a part of the results.
Experiment: Primary qHTS for Identification of Small Molecule Activators of Huntingtin-Antisense Promoter Activity; also: nearly all actives have a fitted effect of over 55% in size
Details: HEK293 HTT-AS promoter firefly luciferase reporter, 24 h; series mostly up to 57.5 µM; activity change, positive = activation: at the top concentration
How it was run: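 Quantitative HTS used concentration series of up to 57.5 uM final on HEK293 luciferase reporter cells, 24 h at 37 degrees C. Readout was Dual-Glo firefly luminescence.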

Activity change, positive = activation, inactive:
CCCN(CCC)C(=O)Cn1c(=O)n(-c2ccc(Cl)cc2)c(=O)c2c3c(sc21)CCCCC3 -8.74%
COc1cc(NC(=O)c2cc3c(s2)-c2ccccc2OC3)cc(OC)c1OC -24.7%
CCCc1cc(=O)[nH]c(SCC(=O)N2CCN(c3ccccc3OC)CC2)n1 -16.3%
COc1cccc(-n2c(=O)c3c(C)c(C)sc3n(CC(=O)Nc3ccccc3OC)c2=O)c1 10.2%
Cc1ccccc1CC1C(=O)Nc2ccc(Br)cc21 (configuration not stated) -24.1%
Cn1c(=O)n(C)c2cc(N3CCOCC3)c(NS(=O)(=O)c3ccc(C(C)(C)C)cc3)cc21 -15.5%
CCOc1cccc(C(=O)N(Cc2ccc(N(C)C)cc2)CC2CCCO2)c1 (configuration not stated) -17%
CCOc1ccc(N(C(=O)c2ccccc2F)S(=O)(=O)c2ccc3c(c2)n(C)c(=O)n3C)cc1 -12.3%
Cc1ccc(C(=O)CCC(=O)Nc2ccc(C)cc2C)cc1 -4.32%
CCc1ccccc1NC(=O)N1CCC(CN2CCc3ccccc3C2)CC1 -7.3%
CC1CCN(S(=O)(=O)c2ccc3c(ccc(=O)n3CC(=O)Nc3ccc(C(C)C)cc3)c2)CC1 -24.9%
Nc1nc(SCC(=O)Nc2cccc(C(F)(F)F)c2)n[nH]1 -7.39%
CCOC(=O)c1c(-c2ccc(C)cc2)csc1NC(=O)c1cc(-c2ccc(Cl)cc2)on1 -12.3%
C[Se]CCC(N)C(=O)O (configuration not stated) -17.4% [at 116 µM, percent change from vehicle, -100% = no light]
Cn1cc(CCC(=O)NCc2ccc(Cl)cc2)c2ccccc21 -17.3%
Cc1cc(C)cc(NS(=O)(=O)c2ccc(-n3cccn3)cc2)c1 -34.6%
COCCCNC(=O)c1oc2c(c1C)-c1nn(Cc3ccc(Cl)cc3)cc1CC2 -41.2%
COc1ccc(-c2cccc(NS(=O)(=O)c3ccc(C)s3)c2)nn1 -22.5%
CCOc1cc(CNc2ccc(C(=O)O)cc2)ccc1OCc1ccccc1 -27.3%
CC1CCC(Nc2ncnc3onc(-c4ccc(F)cc4)c23)CC1 (configuration not stated) -26.1%
O=C(O)c1c(-c2ccccc2)oc2ccc(OCc3ccc(Cl)c(Cl)c3)cc12 -6.88%
CCOc1ccccc1NC(=O)c1c(NCc2ccc(C)o2)sc2c1CCC(C)C2 (configuration not stated) 9.03%
COc1ccc(S(=O)(=O)Nc2ccc3oc4c(c3c2)C(=O)CC(C)(C)C4)cc1 -34.5%
COc1cccc(C(=O)Nc2cccc(NC(=O)c3ccc(Cl)cc3Cl)c2)c1 0.78%
CCCCN(C)C(=O)Cn1c(C2CC(=O)N(c3ccc(C)cc3)C2)nc2ccccc21 (configuration not stated) -5.92%
CCC(C)Nc1sc(S(=O)(=O)CC)nc1S(=O)(=O)c1ccc(C)cc1 (configuration not stated) -16.2%
CCOc1ccc(CNC(=O)CCCn2nc(C)c3sc4ccccc4c3c2=O)cc1 -8.04%
COC(=O)c1cc(S(=O)(=O)NCC2CCN(Cc3ccc(C)cc3)CC2)cn1C 0.146%
Cc1cccc(NS(=O)(=O)c2ccc3c(c2)[C@H]2C=CC[C@H]2[C@@H](c2ccc(F)cc2)N3)c1 -20.5%
CCc1ccc(C(=O)c2cn(CC(=O)Nc3cc(OC)ccc3OC)c3ccc(C)cc3c2=O)cc1 -16.4%
CCCOc1ccc(-c2nn(-c3ccccc3)cc2C2NC(=O)NC(C)=C2C(=O)OC)cc1 (configuration not stated) -16.7%
Cc1ccc(C)c(NC(=O)Cn2c(=O)nc(-c3ccccc3)c3ccccc32)c1 2.71%
COc1ccc(-c2nc(CCNC(=O)c3cccs3)cs2)cc1 -21.8%
CNC(=O)Cn1nc(-c2ccc(Cl)cc2)c2ccccc2c1=O 7.3% [at 11.5 µM, percent change from vehicle, -100% = no light]
COc1ccc(NC(=O)CSC2=Nc3ccccc3C3=NC(CCC(=O)NCc4ccc(F)cc4)C(=O)N23)cc1Cl (configuration not stated) -23.8%
CCCCC(CC)CNC(=O)CN(C)S(=O)(=O)c1ccc2c(c1)c(=O)n(C)c(=O)n2C (configuration not stated) -19.6%
CCOC(=O)c1ccc(NC(=O)CC2Sc3ccc(C(F)(F)F)cc3NC2=O)cc1 (configuration not stated) -33.9%
Cc1nn(C)c2c1c(-c1ccccc1)cc(=O)n2Cc1ccccc1Cl -19.1%
COc1cccc(N2CCN(C(=O)C3CCN(S(=O)(=O)c4cccc5nonc45)CC3)CC2)c1 -22.4%
Cc1ccc(CN(C(=O)COc2ccc(Cl)cc2)c2ccccn2)o1 -11.7%
Cc1cccc(-c2nnn3c2nc(NCCc2ccc(S(N)(=O)=O)cc2)c2ccccc23)c1 -30.6%
COc1ccc(OC)c(NC(=O)CSc2cn(CC(=O)N3CCCCCC3)c3ccccc23)c1 -34%
O=C(CS(=O)(=O)c1cccc2nsnc12)Nc1ccc(F)cc1 -14.9%
COCCNC(=O)CSc1nc2cc3c(cc2c(=O)n1CCCC(=O)NCc1ccc(OC)cc1)OCO3 -8.05%
COC(=O)c1cc(S(=O)(=O)NCC2CCN(Cc3ccc(F)cc3)CC2)c[nH]1 -6.57%
COCCNC(=O)c1ccc2c(c1)N(Cc1cc(C)ccc1C)C(=O)c1ccccc1S2(=O)=O -21.6%
COc1ccc(S(=O)(=O)N2CCN(c3ccc(Cl)c(Cl)c3)CC2)c2ccccc12 -14.4%
CCSc1ncc(Cl)c(C(=O)N(Cc2ccc(N(C)C)cc2)Cc2ccco2)n1 -41.3%
OCCNC1CCCc2c1[nH]c1ccc(-c3ccccc3)cc21 (configuration not stated) -4.87%
Cc1cc(NCc2ccccc2Cl)n2cnnc2n1 -43.8%
Cc1ccc(NC(=O)CSc2nc3ccccc3nc2Cc2ccccc2)c(C)c1 -6.15%
COc1ccc(S(=O)(=O)Nc2nnc(CC(C)C)s2)cc1 -25.9%
O=C(Nc1ccc(N2CCN(c3ccc(F)cc3)CC2)c(C(=O)O)c1)c1ccccc1F 2.8%
CC1=C(C(=O)Nc2cccnc2)C(c2ccccc2)n2nc(SCc3ccccc3Cl)nc2N1 (configuration not stated) -14.3%
CCOC(=O)c1ccc(NC(=O)CSc2nc3ccccc3c(=O)n2CCNC(C)=O)cc1 -2.49%
CCc1ccc(NC(=O)CN2C(=O)C(c3ccc(F)cc3)=NC2(C)C)cc1 -17.1%
Cc1ccc(CCNC(=O)Cn2ncc3c([nH]c4ccc(C)cc43)c2=O)cc1 -12.7%
CCCCOc1ccc(Cn2c(=O)oc3ccc(C)cc32)cc1 -21.2%
Cc1nc2nc(NCc3cccc(Cl)c3)[nH]n2c(=O)c1Cc1ccccc1 16%
COc1ccc(-c2cc3ccc(O)c(CN4CCCC(C)C4)c3oc2=O)cc1 (configuration not stated) -19.7%
COC(=O)c1ccc(Cn2c(SCc3ccccc3F)nc3ccncc32)cc1 -9.81%
CCOc1ccc(CCNC(=O)Cn2c(=O)c3cccn3c3ccc(F)cc32)cc1OCC -5.37%
